Test results published in ChEMBL document CHEMBL4888484, “Replenishing the malaria drug discovery pipeline: Screening and hit evaluation of the MMV Hit Generation Library 1 (HGL1) against asexual blood stage Plasmodium falciparum ,using a nano luciferase reporter read-out” (2022).
Screen size: about 4,800 compounds; about 420 (8.8%) showed an effect of 50% or more. This is one part of the list.

System: Plasmodium falciparum
Assay: Confirmatory screen in NF54 nanoGlo assay, in single point, at 2uM, 72h
Format: functional, Erythrocyte
Conditions: timepoint 72 hour

| Compound | % Inhibition |
| --- | --- |
| Cc1c(F)cccc1NC(=O)N1CCN(C2=CC3=N[C@@H](C)CN3C=N2)CC1 | 44% |
| Cc1cnc(C2CCN(C(=O)[C@@H]3CNC(=O)O3)CC2)s1 | -2% |
| CCCN(CC(=O)O)S(=O)(=O)c1cccc(C)c1Br | -7% |
| COC(C)[C@H](C)NCC(C)c1ccccc1 (some centres not stated) | -10% |
| Cc1c(Cl)cccc1S(=O)(=O)N1CCN(c2cccnc2)C(=O)C1 | 2% |
| COCc1cc(=O)n(CC(=O)Nc2cccc(C)c2C)c(N2CCOCC2)n1 | 5% |
| CC(C)c1ccc(-c2nc(CN3CCCCC3)cc(CN3CCCCC3)c2O)cc1 | 96% |
| CC(=O)Nc1cc2c(cc1NC(C)=O)N(C(C)=O)CC2 | -15% |
| CC(=O)Nc1ccccc1CC(c1c[nH]c2ccccc12)c1c[nH]c2ccccc12 | 0% |
| CCN(C)[C@H]1CCN(c2cc(C(F)(F)F)ccn2)C1 | -17% |
| CCN(C(=O)Cn1cc(-c2ccccc2)c2ncn(CC)c(=O)c21)c1ccccc1 | 75% |
| CCCN1CC(=O)N(c2ccc(C)cc2)[C@@H]2CS(=O)(=O)C[C@@H]21 | 4% |
| Cc1nc2cc(NC(=O)[C@@]3(C)CCCN(C(=O)c4ccccc4)C3)ccc2o1 | 57% |
| O=C(Cc1ccc(C(=O)Nc2nc(-c3ccccc3)cs2)cc1)c1ccccc1 | 10% |
| Cc1nn(C)c(=O)n1-c1ccc(Oc2ccccc2)cc1 | -4% |
| COCC(=O)N[C@H]1CC[C@H](CO)CC1 | 1% |
| Cc1nn(C)c(Oc2cccc(F)c2)c1NC(=O)CC(C)C | 8% |
| CC1CCC2C(C1)c1c(nc(O)n(-c3ccccc3)c1=O)OC2(C)C (configuration not stated) | 8% |
| COc1ccc2c(c1)CN(Cc1ccccc1Cl)CC[C@H]1COC(=O)N21 | 11% |
| CC(C)Oc1nccnc1NC[C@](C)(O)c1cccc(Cl)c1 | -7% |
| CCn1cc(Cl)c(C(=O)N(C2CCCCC2)C2CCCCC2)n1 | 7% |
| COc1ccc2oc(-c3ccc(CNC(=O)c4cccnc4)cc3)nc2c1 | 2% |
| O=S(=O)(Nc1ccc2nncn2c1)c1c(F)cccc1Cl | -17% |
| Cc1ccsc1-c1noc([C@@H]2COCCN2C)n1 | -7% |
| NC(=O)c1cc(Cl)c(Cl)c(Cl)c1 | -18% |
| Cc1ccc(Oc2ccccc2CNC(=O)[C@@H]2CCC(=O)N2)cc1 | -6% |

| Compound | % Inhibition |
| --- | --- |
| CC1CCC(N(CC(=O)NC(N)=O)C2CC2)CC1 (configuration not stated) | 1% |
| CCC1CCCC(NS(=O)(=O)CCC(C)(C)C)C1 (configuration not stated) | -13% |
| CCN1C(=O)CN(C(=O)c2cccc(C)c2)CC12CCOCC2 | -1% |
| CCC(NC(=O)c1c[nH]c(C)cc1=O)C(O)c1ccccc1F (configuration not stated) | 4% |
| COc1cccc(-c2cc(C(=O)N3CCCN(C(=O)c4cc(-c5cccc(OC)c5)nc5ccccc45)CC3)c3ccccc3n2)c1 | -1% |
| Cc1nc2cccnc2n1-c1cc(C(=O)NCC[C@H](C)N2CCCC2)ccc1Cl | 0% |
| CCn1ccc(CN(C)C(=O)[C@H]2CCCN(S(=O)(=O)c3cnn(C)c3C)C2)n1 | -12% |
| CC(N=C1NC(=NC(C)c2ccccc2)c2ccccc21)c1ccccc1 (configuration not stated) | 17% |
| CNc1c(-n2cc(C(=O)OC)c(C(=O)OC)c2C#N)c(=O)n(C)c(=O)n1C | -12% |
| CC(C)(C)c1ccc(C(=O)C(=O)NC[C@H]2CCCO2)cc1 | -16% |
| Cc1ccc2c(c1)ncc1c(-c3ccccc3)nn(-c3ccc(F)cc3)c12 | -5% |
| O=C(Nc1cc(C(F)(F)F)ccc1Cl)C1CCC(N2C(=O)c3cc(Cl)c(Cl)cc3C2=O)CC1 (configuration not stated) | -7% |
| Cn1c(CN2CCOC[C@@]23CCOC3)nnc1C1CC1 | 7% |
| C[C@H](c1ccccc1)N1C(=O)[C@@H]2CN(C(=O)CC(C)(C)C)CCN2C1=O | -7% |
| Cc1nnc(NC(=O)c2ccc3n[nH]c(=O)n3c2)s1 | -9% |
| Cc1cc(C)cc(-n2c(=O)c3sccc3n(CC(=O)N[C@@H](C)CCc3ccccc3)c2=O)c1 | -9% |
| O=C(Cn1nnc2c1CCCC2)NCc1ccc2cc[nH]c2n1 | 2% |
| COc1cc(C)sc1C(=O)NCc1csc(=O)[nH]1 | -6% |
| Cc1ccc(C)c(-n2c(=O)c3sccc3n(CC(=O)N3CC(C)CC(C)C3)c2=O)c1 (configuration not stated) | 2% |
| Cc1cc2ncn(CN3CC[C@@H](NC(=O)OC(C)(C)C)C3)c2cc1C | -19% |
| O=C1Nc2ccc(-c3ccccc3)cc2[C@@]1(O)C(F)(F)F | 6% |
| COc1cc2ncc3c(-c4ccc(C)c(C)c4)n[nH]c3c2cc1OC | 33% |
| CCn1cc(C)c(C(=O)O)c1CC(=O)NCc1ccc(F)cc1 | -12% |
| c1cc(CN2CCC3(CC2)OCCO3)c2c(c1)OCCO2 | -1% |
| C[C@H](NC(=O)c1cc(-c2ccc(F)cc2)ns1)c1ccccn1 | -1% |
| Cc1cc(C)cc(NC(=O)Cc2nnc3ccc(C(=O)Nc4ccccc4)cn23)c1 | 0% |

| Compound | % Inhibition |
| --- | --- |
| CC(C)CC(=O)N1CC[C@H](CC(=O)NCc2ccccc2)C1 | 1% |
| COc1ccc2cc3n(c2c1)C[C@](C(=O)NC1CCCCCC1)(c1ccccc1)N(Cc1cccc(Br)c1)C3=O | 2% |
| CCOc1ccc([C@@H](Nc2nc(C)cc(C)n2)c2cc(C)sc2NC(=O)c2ccccc2)cc1 | 1% |
| COC(=O)c1ccc(N(Cc2ccccc2O)c2ncc(C(F)(F)F)cc2Cl)c(F)c1 | -11% |
| O=S(=O)(c1ccc(Cl)cc1)n1ccc(C2CC2)n1 | -7% |
| Cc1nc([C@@H](NC(=O)c2cc(Cl)cn2C)c2cnn(C)c2)no1 | -9% |
| CC(=O)c1nc2cc(F)c(N3CCOCC3)cc2nc1C | -11% |
| CCOc1ccc2c(n1)CCN(C(=O)c1ccc(OC)cc1)C2 | -13% |
| COc1cccc2nc(C[C@H]3CN(CC(C)C)CC[C@H]3CC(=O)O)[nH]c12 | -9% |
| CCOC(=O)CC1(S(=O)(=O)Nc2cccc3ccccc23)CC1 | 0% |
| CCN(CC)c1nc(Nc2ccc(Cl)c(Cl)c2)nc(Nc2cc(C)ccc2C)n1 | 1% |
| O=C(COc1ccc(F)cc1)N1CCc2nc(OCC3CC3)ccc2C1 | -7% |
| CCN(CC)[C@@H](CNC(=O)CCc1c(C)nn(C)c1C)c1ccco1 | 0% |
| O=C(NC1CCCC1)c1n[nH]c(=O)c2ccccc12 | 1% |
| Cc1cccc(NC(=O)CCC(=O)OCC(F)(F)F)c1C | -11% |
| Cc1ccc(NC(=O)N2CCCN(c3ccc(NC(=O)c4cccs4)cc3C(=O)NCc3ccc(F)cc3)CC2)cc1 | 43% |
| Clc1ccc2c(c1)CC[C@@H]2NCc1nnc2n1CCC2 | -6% |
| COc1ccc(CCN[C@@H]2c3ccccc3C(=O)N2C2CCCCC2)cc1OC | 2% |
| COc1ccc(C(=O)Nc2cnccc2-n2nc(C)cc2C)cc1 | 4% |
| Cc1ccc(NC(=O)c2ccc3c(-c4ccccc4)onc3c2)cc1 | -22% |
| Cc1nc(Cn2nnc(NC(=O)c3cccc(F)c3)c2C)no1 | 1% |
| Cc1nc2cccnc2n1-c1cc(C(=O)NCc2ccccc2Cl)ccc1Cl | -2% |
| Cn1nc(C2CC2)c2c(C(F)(F)F)cc(-c3ccco3)nc21 | -2% |
| CC(C)c1cc(CNC(=O)N2CCCC[C@H]2c2cccc(F)c2)no1 | 25% |
| FC(F)(F)c1cnc(C[C@@H]2NCCc3ccccc32)c(Cl)c1 | -2% |
| CCc1ccc(-c2cc3n(n2)C[C@@](C)(C(=O)NC2CCCCC2)N(c2cc(C)cc(C)c2)C3=O)cc1 | 74% |

| Compound | % Inhibition |
| --- | --- |
| O=C(NC1CCN(Cc2ccccc2)CC1)c1cn[nH]c1-c1ccccc1 | -3% |
| CCC(=O)Nc1ccc(-n2cnc(C(=O)NCc3ccco3)c2)nc1 | -11% |
| O=C(CCCCC(=O)n1nnc2ccccc21)n1nnc2ccccc21 | -10% |
| Cn1c(C(=O)Nc2ccc(S(N)(=O)=O)cc2)cc2occc21 | -14% |
| Cc1noc(C)c1NC(=O)CCS(=O)(=O)c1ccc2ccccc2c1 | -6% |
| COC[C@H](O)CNC(=O)c1cccn1C1CC1 | -1% |
| CN1c2cc(C(=O)N3CCc4ccccc4C3)ccc2C(=O)N2CCCC[C@H]21 | -6% |
| COc1ccc(-c2nn(CN(C)OC)c(=S)o2)cc1OC | -12% |
| COc1ccccc1C(=O)N1CCC([C@H](NC(=O)c2ccc3c(c2)OCO3)C(=O)NC(C)C)CC1 | 4% |
| O=C(c1[nH]nc(C2CC2)c1Br)N1CCC12CCC2 | -8% |
| Cc1ccc(NC(=O)CN2N=C(C(=O)Nc3ccc(F)cc3)CCC2=O)cc1F | -12% |
| Brc1cccc2c1OCC[C@@H]2Nc1ncnc2nc[nH]c12 | 17% |
| Cc1cc(Oc2ncccn2)ccc1NC(=O)N1CCOCC1 | 5% |
| Oc1ccc2cc(CN3CCC[C@H](CN4CCCC4)C3)ccc2c1 | 17% |
| Cc1cc(NC(=O)c2ccn(-c3nc(-c4cnn(C)c4)cc(C(F)(F)F)n3)n2)no1 | 1% |
| Cc1cccc(S(=O)(=O)Nc2ccc3nc(NC(=O)c4ccccc4)sc3c2)c1 | -2% |
| C#CCN(C(=O)c1cnn(CC(C)C)c1C(F)F)c1nccs1 | -1% |
| CNC(=O)Cc1noc(-c2sccc2C#N)n1 | -6% |
| CN(c1ccc(Br)cc1)S(=O)(=O)c1ccc2c(c1)CCN2C(=O)C1CCC1 | -7% |
| Cc1ncsc1CNS(=O)(=O)c1ccc(OCC(F)F)cc1 | 0% |
| Cc1nc(N2CCOCC2)nc2c1CCCC2 | 3% |
| O=C(c1cccs1)N1CCN(C2CCCCC2)CC1 | -12% |
| O=C(Nc1ccc(N2CCCCCC2)cc1C(=O)O)c1ccc(Cl)cc1 | 8% |
| C[C@H]1CCN(c2nc(-c3ccccn3)nc3c2CCC3)C1 | 91% |
